PMC4336329 (PLoS ONE, 2015)
Screen size: about 310,000 compounds; about 2,200 (0.71%) showed an effect of 50% or more. Effects have a minus sign here. Some of the results follow.

The compounds below were run against human ether-à-go-go-related gene (hERG) potassium channel (human, UniProt Q12809) (assay: primary screen, population patch clamp on CHO cells stably expressing hERG).
human ether-à-go-go-related gene (hERG) potassium channel, sequence (Q12809 whole entry, looked up): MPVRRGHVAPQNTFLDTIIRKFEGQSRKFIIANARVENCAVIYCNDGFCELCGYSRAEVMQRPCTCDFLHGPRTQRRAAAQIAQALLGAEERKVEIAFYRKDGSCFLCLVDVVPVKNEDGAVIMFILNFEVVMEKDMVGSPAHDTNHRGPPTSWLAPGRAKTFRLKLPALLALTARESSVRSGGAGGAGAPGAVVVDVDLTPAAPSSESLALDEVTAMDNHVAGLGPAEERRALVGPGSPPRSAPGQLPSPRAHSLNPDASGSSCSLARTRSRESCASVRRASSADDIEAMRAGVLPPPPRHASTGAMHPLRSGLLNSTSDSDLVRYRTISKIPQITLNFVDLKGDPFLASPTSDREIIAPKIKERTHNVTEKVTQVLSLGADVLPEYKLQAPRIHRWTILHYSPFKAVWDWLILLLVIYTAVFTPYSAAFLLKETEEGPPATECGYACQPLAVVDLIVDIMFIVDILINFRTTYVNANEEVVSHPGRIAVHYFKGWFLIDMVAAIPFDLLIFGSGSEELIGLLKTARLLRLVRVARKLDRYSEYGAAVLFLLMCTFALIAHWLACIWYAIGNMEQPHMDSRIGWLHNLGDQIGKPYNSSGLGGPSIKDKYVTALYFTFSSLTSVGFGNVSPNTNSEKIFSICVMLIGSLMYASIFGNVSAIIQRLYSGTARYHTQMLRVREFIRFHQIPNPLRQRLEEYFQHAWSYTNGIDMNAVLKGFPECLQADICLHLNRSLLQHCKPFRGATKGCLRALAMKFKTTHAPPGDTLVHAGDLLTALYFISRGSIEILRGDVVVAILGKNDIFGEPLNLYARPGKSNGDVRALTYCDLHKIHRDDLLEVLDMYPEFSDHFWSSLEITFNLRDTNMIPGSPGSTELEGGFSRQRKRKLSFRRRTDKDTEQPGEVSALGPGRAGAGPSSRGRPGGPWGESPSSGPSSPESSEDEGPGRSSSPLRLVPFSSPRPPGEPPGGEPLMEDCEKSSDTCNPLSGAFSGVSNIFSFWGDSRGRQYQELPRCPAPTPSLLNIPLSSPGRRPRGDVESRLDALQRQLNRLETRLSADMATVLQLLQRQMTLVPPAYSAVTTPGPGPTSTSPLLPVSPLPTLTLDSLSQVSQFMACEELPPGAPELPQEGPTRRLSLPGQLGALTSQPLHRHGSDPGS

Structure (SMILES)	hERG current change (%, negative = inhibition) at 1uM [%]
Cn1cnnc1Sc1ccc(C(=O)NCCC(c2ccccc2)c2ccccc2)cc1[N+](=O)[O-]	-39.8
O=C(NCC(=O)N(c1ccccc1F)C(C(=O)NC1CCCC1)c1cccnc1)c1ccco1 (stereo not drawn)	14
Cc1cc(C(=O)Nc2ccccc2Cl)c2ccccc2n1	5.07
COc1ccc(OC2C(=O)N(Cc3ccc4c(c3)OCO4)C2c2sccc2C)cc1 (stereo not drawn)	5.92
CN1CC(c2ccccc2)C2(SC(=S)N(Cc3ccco3)C2=O)C12C(=O)Nc1ccccc12 (stereo not drawn)	6.1
COc1cc(C(=O)NCC(=O)N/N=C/c2ccc(OC(=O)c3ccco3)cc2)cc(OC)c1OC	9.58
CC(C)CN(C(=O)CN1C(=O)NC2(CCc3ccccc32)C1=O)C1CCS(=O)(=O)C1 (stereo not drawn)	16.9
O=C(c1ccco1)N1CCN(C(=O)C2CC(c3ccc(F)cc3)=NO2)CC1 (stereo not drawn)	-59.7
CC(C)c1nc2oc3c(NCc4ccccn4)ncnc3c2c2c1COC(C)(C)C2	7.37
Cc1cc(NC(=O)c2noc3c2CCCC3)no1	-0.965
COC(=O)c1ccccc1N/C=C/C(=O)c1ccc(Br)cc1	15.8
COc1ccc2c(c1)C(=O)[C@@H](O)[C@H](c1ccc(OC)c(Br)c1)O2	3.75
COc1cc2nc(SCc3ccc(C(F)(F)F)cc3)n(Cc3cccs3)c(=N)c2cc1OC	1.51
COC(=O)[C@@H](N)CCCN=C(N)N[N+](=O)[O-].Cl	14.8
O=C(NCCN1CCN(c2ccccc2F)CC1)C1CCCN(S(=O)(=O)c2cnc[nH]2)C1 (stereo not drawn)	8.89
CC1=C(C(=O)Nc2ccc([N+](=O)[O-])cc2)C(c2cccc(C(F)(F)F)c2)NC(=S)N1c1ccccc1 (stereo not drawn)	2.79
CCOc1ccc(Oc2c(C)oc3cc(O)ccc3c2=O)cc1	6.43
Cc1ccc(C(=O)NCc2ccc(F)cc2)cc1NC1=NC2CS(=O)(=O)CC2S1 (stereo not drawn)	8.39
COc1ccc(C(=O)N/C(=C\c2cn(S(=O)(=O)N(C)C)c3ccccc23)C(=O)NCCCN2CCOCC2)cc1	11
Cc1ccsc1C(=O)NCCc1ccc(S(N)(=O)=O)cc1	11.2
O=C(c1ccc2c(c1)N(Cc1ccccc1F)C(=O)c1ccccc1S2(=O)=O)N1CCCC1	18.8

Structure (SMILES)	hERG current change (%, negative = inhibition) at 1uM [%]
CC(OC(=O)CC1CCCC1)C(=O)Nc1ccc(Cl)cn1 (stereo not drawn)	7.05
Cc1ccc(Cc2nc(-c3ccncc3)no2)cc1	4.95
CC(C)(C)CN1CCNC(=O)C1CC(=O)N1CCN(c2ccccc2)CC1 (stereo not drawn)	8.57
C=CCn1c(=NC(=O)CN2C(=O)CCC2=O)sc2cccc(OC)c21	5.41
CCCCn1nnnc1SCC(=O)Nc1ccc(C)cc1	11
C=CCN=C1S/C(=C\c2ccc(N(C)C)cc2)C(=O)N1CC=C	12
CN(CC(=O)Nc1cccc2ccccc12)c1ccc(S(=O)(=O)N2CCOCC2)cn1	5.96
COc1cccc(C(=O)Nc2cccnc2)c1OC	16
Cc1ccc(CNC(=O)C2CCN(S(=O)(=O)N3CCOCC3)CC2)cc1	-0.458
CCCc1cc(=O)[nH]c(SCC(=O)Nc2oc(C)c3c(C)n[nH]c(=O)c23)n1	17.1
CCOC(=O)c1nn(-c2ccc(F)cc2)c2c1CC/C2=C/c1ccccc1	8.74
CCCn1c(N)c(C(=O)COC(=O)CNC(=O)c2ccc(C)c(C)c2)c(=O)n(C)c1=O	-42.5
CC(=O)c1ccc(NC(=O)C2CC(=O)N(Cc3ccccc3)C2)cc1 (stereo not drawn)	14.3
CSCCC(NC(=O)c1ccccc1Cl)C(=O)NNC(=O)c1csc(N2CCOCC2)n1 (stereo not drawn)	1.23
Cc1ccc(C(=O)Nc2ccccc2Oc2ccccc2)o1	9.29
CCN(CC(=O)NC(C)(C)C)C(=O)CCl	5.17
NC(=O)CCC(=O)N1CCCC(C(=O)c2ccc3c4c(cccc24)CC3)C1 (stereo not drawn)	8.27
O=C(CNS(=O)(=O)c1cccs1)N1CCN(c2ccccc2F)CC1	9.22
CCCc1nc(N)sc1C(=O)OCC	6.02
CCCc1cc(C(=O)N/N=C/c2ccc(CC)s2)c2ccccc2n1	-2.38
CCOC(=O)/C(C#N)=C/c1cc(C)n(-c2ccc(C)cc2)c1C	13.5
